# Reference: the supplement of paper PMC8183993
# Several values for one entry are separate records, joined by “and”; a condition that tells them apart may be missing. Equal values may be shown once. Where a name gives a salt, the structure may show the parent alone. ± gives the standard deviation of the averaged measurements. Over roughly 3,100 compounds, “mean cytoplasmic OPP incorporation (global translation) relative to DMSO” has its median near 100; the lowest 2% begin near 56. This is one part of the list.
# Tested on: U2OS
# Experiment: mean cytoplasmic OPP incorporation (global translation) relative to DMSO (% of DMSO); higher = more protein synthesis
# Details: 10 µM; 24 h
# Protocol: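 Primary image-based screen in U2OS cells: compounds at 10 uM for 24 h, then a 1 h o-propargyl-puromycin (OPP) pulse, click labelling, and high-throughput microscopy. Mean cytoplasmic OPP intensity and nuclei count were normalised to DMSO wells within each plate (DMSO = 100) and averaged over triplicate plates.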
row,SMILES,mean cytoplasmic OPP incorporation
1,CN(C)[C@@H](CCOc1cccc2ccccc12)c1ccccc1 [Dapoxetine HCl (Priligy)],113
2,CCCC(CCC)C(=O)O [Sodium valproate],101
3,CCCC(CCC)C(=O)O [Valproic acid],114 ± 3.2
4,CCCC(CCC)C(=O)O [Sodium Valproate],112
5,CN(C)CCCC1(c2ccc(F)cc2)OCc2cc(C#N)ccc21 (stereo not drawn) [Citalopram hydrobromide],97.7
6,CN(C)CCCC1(c2ccc(F)cc2)OCc2cc(C#N)ccc21 (stereo not drawn) [Citalopram Hydrobromide],104
7,CC[C@H](Nc1ncnc2[nH]cnc12)c1nc2cccc(F)c2c(=O)n1-c1ccccc1,93.3
8,CCOC(=O)C1=CN(Cc2ccccc2)C=C(C(=O)OCC)C1c1ccccc1,99.2
9,O=C(NC1CCNCC1)c1n[nH]cc1NC(=O)c1c(Cl)cccc1Cl,56.5
10,CC(C)c1noc(N2CCC(COc3ccc(-c4ccc(S(C)(=O)=O)cc4)nc3)CC2)n1,108
11,O[C@@H](COc1cccc2ncccc12)CN1CCN(C2c3ccccc3[C@@H]3[C@H](c4ccccc42)C3(F)F)CC1 (stereo partly drawn),111
12,"C[C@H](NC(=O)/C(C#N)=C/c1ccc(O)c(O)c1)c1ccccc1 [Tyrphostin B44, (+) enantiomer]",96
13,O=S(=O)(NCCNC/C=C/c1ccc(Br)cc1)c1cccc2cnccc12,109
14,O=S(=O)(NCCNC/C=C/c1ccc(Br)cc1)c1cccc2cnccc12 [H 89 dihydrochloride],102
15,CC(C)(C)c1cc(/C=C(\C#N)C(N)=S)cc(C(C)(C)C)c1O [Tyrphostin AG 879 (AG 879)],104
16,CCC(=O)NCC[C@@H]1CCc2ccc3c(c21)CCO3 [Ramelteon (TAK-375)],97.4
17,COC1=CC(=O)C[C@@H](C)[C@]12Oc1c(Cl)c(OC)cc(OC)c1C2=O [Griseofulvin],94.6
18,COc1cc(N)c(Cl)cc1C(=O)NC1CCN(CCCOc2ccc(F)cc2)CC1OC (stereo not drawn) [Cisapride],117
19,CN(C)CCC(c1ccc(Cl)cc1)c1ccccn1 (stereo not drawn) [Chlorpheniramine maleate],93.9
20,CCN(CC)CCCCC1CCN(CC(=O)N2c3ccccc3C(=O)Nc3cccnc32)CC1,99.3
21,COc1ccccc1N1CCN(CCN2C(=O)CC3(CCCC3)CC2=O)CC1 [BMY 7378 dihydrochloride],100
22,COC1=C(OC)C(=O)C(C/C=C(\C)CC/C=C(\C)CC/C=C(\C)CC/C=C(\C)CC/C=C(\C)CC/C=C(\C)CC/C=C(\C)CC/C=C(\C)CC/C=C(\C)CCC=C(C)C)=C(C)C1=O [Coenzyme Q10 (CoQ10)],114
23,O=C(O)c1ccccc1Nc1cccc(OCc2ccc3ccccc3n2)c1 [SR 2640 hydrochloride],100
24,CC(=O)NCCc1c(Cc2ccccc2)[nH]c2ccccc12 [Luzindole],103
25,O=C(O[C@@H]1C[C@@H]2C[C@H]3C[C@H](C1)N2CC3=O)c1c[nH]c2ccccc12 [Dolasetron mesilate],100
26,O=C(Nc1ccc(C(F)(F)F)cn1)N1CCN(c2ncccc2C(F)(F)F)CC1,89.9

row,SMILES,mean cytoplasmic OPP incorporation
1,COC(=O)Nc1nc2cc(C(=O)c3ccc(F)cc3)ccc2[nH]1 [Flubendazol],80.3
2,COC(=O)Nc1nc2cc(C(=O)c3ccc(F)cc3)ccc2[nH]1 [Flubendazole (Flutelmium)],87.3
3,Cn1c(=O)c2c(ncn2C)n(C)c1=O [Caffeine],98.3 ± 2.4
4,CC[C@@H]1C(=O)N(C)c2cnc(Nc3ccc(C(=O)NC4CCN(C)CC4)cc3OC)nc2N1C1CCCC1,110
5,O=C1CCc2c(ccc3ccccc23)O1 [Splitomicin],104 ± 1.3
6,O=C1c2ccccc2C(Cc2ccncc2)(Cc2ccncc2)c2ccccc21 [XE 991 dihydrochloride],106
7,Cc1c(OCC(F)(F)F)ccnc1C[S+]([O-])c1nc2ccccc2[nH]1 (stereo not drawn) [Lansoprazole],97.52 ± 0.96
8,C#CCN(C)CC1=Cc2ccccc2Oc2ccccc21,102
9,CC(C)(C)NCC(O)c1ccc(O)c(CO)c1 (stereo not drawn) [Salbutamol],101
10,CCCCC[C@H](O)CC(=O)CCc1ccc(O)c(OC)c1 [Gingerol],102
11,CO[C@H]1C[C@@H]2CC[C@@H](C)[C@@](O)(O2)C(=O)C(=O)N2CCCC[C@H]2C(=O)O[C@H]([C@H](C)C[C@@H]2CC[C@@H](OP(C)(C)=O)[C@H](OC)C2)CC(=O)[C@H](C)/C=C(\C)[C@@H](O)[C@@H](OC)C(=O)[C@H](C)C[C@H](C)/C=C/C=C/C=C/1C [Deforolimus (Ridaforolimus)],89.2
12,CCn1c(=O)n(C2=C(CO)CN(CC3CCCCCCC3)CC2)c2ccccc21,108
13,O=C(Nc1cccc(Cl)c1)Nc1ncc(CCNc2ncnc3ccsc23)s1 [SNS-314 Mesylate],122
14,Nc1ncnc2c1c(-c1cccc(OCc3ccccc3)c1)cn2C1CC(CN2CCCC2)C1 (stereo not drawn),123
15,CNC(=O)CN1CCC(Oc2cc3c(Nc4cccc(Cl)c4F)ncnc3cc2OC)CC1,112
16,CCCS(=O)(=O)Nc1ccc(F)c(C(=O)c2c[nH]c3ncc(Cl)cc23)c1F,106
17,CCN1CCCC1CNC(=O)c1cc(S(=O)(=O)CC)c(N)cc1OC (stereo not drawn) [Amisulpride],98.7 ± 6
18,Nc1nc(N)nc(-c2cc(Cl)ccc2Cl)n1 [Irsogladine maleate],100 ± 4
19,COc1cc(N)c(Cl)cc1C(=O)NC1CCN(Cc2ccccc2)CC1 [Clebopride maleate],108
20,C[C@@H](O)[C@H]1C(=O)N2C(C(=O)OCOC(=O)C(C)(C)C)=C(SC3CN(C4=NCCS4)C3)[C@H](C)[C@H]12 [Tebipenem pivoxil (L-084)],98.1
21,CCCCOc1ccc(OCCCN2CCOCC2)cc1 [Pramoxine hydrochloride],97.3
22,O=C(NCC1CCCCN1)c1cc(OCC(F)(F)F)ccc1OCC(F)(F)F (stereo not drawn) [Flecainide acetate],99.9 ± 2.5
23,CC1CCc2cc(F)cc3c(=O)c(C(=O)O)cn1c23 (stereo not drawn) [Flumequine],88.3
24,COc1ccccc1OCCNCC(O)COc1cccc2[nH]c3ccccc3c12 (stereo not drawn) [Carvedilol],118 ± 6.1
25,CCC(CC)[C@H](NC(C)=O)[C@@H]1[C@H](O)[C@@H](C(=O)O)C[C@H]1NC(=N)N [Peramivir  Trihydrate],99.4
26,COc1cc2c(cc1OC)-c1cc3nc4ccccc4nc3n1C(C)(C)C2,103

row,SMILES,mean cytoplasmic OPP incorporation
1,CC(C)c1nc(CN(C)C(=O)N[C@H](C(=O)N[C@@H](Cc2ccccc2)C[C@H](O)[C@H](Cc2ccccc2)NC(=O)OCc2cncs2)C(C)C)cs1 [Ritonavir],112
2,COc1c(O)cc2c(c1O)[C@@H]1O[C@H](CO)[C@@H](O)[C@H](O)[C@H]1OC2=O [Bergenin (Cuscutin)],99.9
3,CC(C)[C@H]1CC[C@H](C(=O)N[C@H](Cc2ccccc2)C(=O)O)CC1 [Nateglinide (Starlix)],97.2
4,Nc1cccc(-c2cc3c(Oc4cccc(O)c4)ncnc3[nH]2)c1,97.3 and 85.8
5,COc1ccc(C(C)=O)c(O)c1 [Paeonol],108
6,COc1ccc(-n2nc(C(N)=O)c3c2C(=O)N(c2ccc(N4CCCCC4=O)cc2)CC3)cc1 [Apixaban],123
7,COc1ccc(CCCOC(Cn2ccnc2)c2ccc(OC)cc2)cc1 (stereo not drawn),98 and 106
8,C[C@H]1CC[C@@]2(OC1)O[C@H]1C[C@H]3[C@@H]4CC[C@@H]5C[C@@H](O[C@@H]6O[C@H](CO)[C@H](O)[C@H](O)[C@H]6O[C@@H]6O[C@H](CO)[C@@H](O)[C@H](O)[C@H]6O)CC[C@]5(C)[C@H]4CC[C@]3(C)[C@H]1[C@@H]2C [Timosaponin A-III],111
9,c1ccc(N2CCN(CCCOc3ccc4c(c3)OCO4)CC2)cc1 [BP 554 maleate],105
10,Cc1cc(Cc2cc(C)cc(C(C)(C)C)c2O)c(O)c(C(C)(C)C)c1,103
11,CCn1cc(C(=O)O)c(=O)c2cc(F)c(N3CCNCC3)cc21 [Norfloxacin],63.7
12,N[C@@H](C(=O)O)c1ccc(O)c(C(=O)O)c1 [(R)-3-Carboxy-4-hydroxyphenylglycine],100
13,Cc1nc2c(OCc3ccccc3)cccn2c1CC#N,98.8
14,CCOC(=O)C1=C(C)NC(C)=C(C(=O)OC)C1c1cccc([N+](=O)[O-])c1 (stereo not drawn) [Nitrendipine],97.86 ± 0.44
15,COc1cc(C[C@H]2C(=O)OC[C@@H]2Cc2ccc(OC)c(OC)c2)ccc1O [Arctigenin],94
16,NS(=O)(=O)c1cc2c(cc1C(F)(F)F)NC(Cc1ccccc1)NS2(=O)=O (stereo not drawn) [Bendroflumethiazide],103
17,CC(CN1c2ccccc2Sc2ccccc21)N(C)C (stereo not drawn) [Promethazine hydrochloride],108
18,CNC(=O)c1ccccc1Sc1ccc2c(/C=C/c3ccccn3)n[nH]c2c1 [Axitinib],98.1
19,CN(C)[C@@H]1CCc2[nH]c3ccc(NC(=O)c4ccc(F)cc4)cc3c2C1,104
20,CCOc1cc(N2CCC(O)CC2)ccc1Nc1ncc2c(n1)N(C)c1ccccc1C(=O)N2C,110
21,O=C(c1ccc(OCCN2CCCCC2)cc1)c1c(-c2ccc(O)cc2)sc2cc(O)ccc12 [Raloxifene hydrochloride],113 ± 6.4
22,CC(C)[C@H](CO)Nc1nc(Nc2cc(N)cc(Cl)c2)c2ncn(C(C)C)c2n1 [Aminopurvalanol A],93.2
23,CNC(=O)c1ccc(N2C(=S)N(c3cnc(C#N)c(C(F)(F)F)c3)C(=O)C23CCC3)cc1F,104
24,O=C1CC2(CCCC2)CC(=O)N1CCNCC1COc2ccccc2O1 (stereo not drawn),106
25,CCOC(=O)[C@H](CCc1ccccc1)N[C@@H](C)C(=O)N1CCC[C@H]1C(=O)O [Enalapril maleate],101
26,CCOC(=O)[C@H](CCc1ccccc1)N[C@@H](C)C(=O)N1CCC[C@H]1C(=O)O [Enalapril],97.8
